Test results as given in PubChem BioAssay AID1468 (National Center for Advancing Translational Sciences (NCATS), 2008).
Values joined by “and” are separate entries in the source; they are usually repeats but may differ in a detail not shown here. Identical values can stand only once. Out of some 280,000 compounds screened, about 1,100 (0.39%) were called active. The shares of active, inactive and inconclusive entries below differ from those in the screen. The call rests on the fitted dose curve; in most records, active means well fitted inhibition curve with a large enough effect; inconclusive means small, poorly fitted or top-dose-only effect, or effect the other way; inactive means flat fitted curve, though single readings scatter. A potency beside an inconclusive call is a rough fit, not a confirmed value.

target: Microtubule-associated protein tau (Homo sapiens) (UniProt P10636); assay: qHTS for Inhibitors of Tau Fibril Formation, Fluorescence Polarization; conditions: K18 P301L tau heparin fibrillization, Alexa594 FP, 6 h; series mostly up to 57.7 µM; activity, negative = inhibition: at the top concentration; further: nearly all actives have a fitted effect of over 55% in size
Sequence of UniProt P10636 (P10636 whole entry, looked up): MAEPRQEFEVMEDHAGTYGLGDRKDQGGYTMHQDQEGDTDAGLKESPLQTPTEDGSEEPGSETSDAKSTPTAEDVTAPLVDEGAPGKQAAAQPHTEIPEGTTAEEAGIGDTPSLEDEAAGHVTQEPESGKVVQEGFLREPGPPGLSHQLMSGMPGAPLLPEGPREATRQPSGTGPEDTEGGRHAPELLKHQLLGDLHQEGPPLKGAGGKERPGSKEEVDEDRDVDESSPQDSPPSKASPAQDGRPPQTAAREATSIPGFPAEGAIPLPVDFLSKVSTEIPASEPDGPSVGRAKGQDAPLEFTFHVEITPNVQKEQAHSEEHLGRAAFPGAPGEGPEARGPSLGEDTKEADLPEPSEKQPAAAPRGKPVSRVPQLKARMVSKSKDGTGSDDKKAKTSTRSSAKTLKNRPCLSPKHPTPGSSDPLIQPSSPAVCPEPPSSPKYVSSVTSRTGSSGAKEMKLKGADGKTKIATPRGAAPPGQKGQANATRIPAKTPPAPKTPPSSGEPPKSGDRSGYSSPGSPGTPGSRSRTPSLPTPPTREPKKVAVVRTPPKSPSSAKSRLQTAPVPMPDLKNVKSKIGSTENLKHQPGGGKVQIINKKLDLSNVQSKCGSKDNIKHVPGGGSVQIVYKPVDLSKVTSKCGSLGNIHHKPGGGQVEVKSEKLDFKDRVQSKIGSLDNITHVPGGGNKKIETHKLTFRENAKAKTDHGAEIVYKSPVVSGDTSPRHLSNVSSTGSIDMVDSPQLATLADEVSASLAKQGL
Procedure, shortened: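 Steps: dispense K18 P301L tau (15 uM plus 0.24 uM Alexa 594 tracer, final) in pH 7 sodium acetate; add compound; add heparin (20 uM final); incubate 6 hr, 37 C; add ThT (30 uM final); after 1 hr ambient, read FP.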
On the % scale 0 is the no-effect control and ±100 the full control effect; potency means the concentration at half of the fitted maximal effect; tags describe the fitted curve by direction and shape.

Potency, inconclusive:
CC(=O)Oc1ccc(C(=O)Nc2cccc(C(=O)c3ccc(C)c(C)c3)c2)cc1 17.8 µM [inhibitor, partial curve]
COc1cc(/C=N/Nc2nc3ccccc3[nH]2)ccc1O 25.1 µM [activator, single point]
COc1ccc(NC(=O)c2cc(-c3cc(C)cc(C)c3O)n[nH]2)cc1Cl 17.8 µM [inhibitor, partial curve]
Cc1ccc(CCNC(=O)c2ccc(CSCc3ccc(C)cc3)o2)cc1 11.2 µM [activator, partial curve]
CO[C@@H]1COC(=O)[C@@H](CCSC)NC(=O)C/C=C\[C@@H](C)COC(=O)[C@H](C)NC(=O)C/C=C\[C@H]1C 8.91 µM [inhibitor, single point]
CCc1ccc(NC(=O)Cn2c(=O)ccc3cc(S(=O)(=O)N4CCCC4)ccc32)cc1 3.55 µM [inhibitor, full curve]
Cc1c[nH]c2cccc(OCC(O)CNC(C)(C)C)c12 (stereo not drawn) 8.91 µM [inhibitor, single point]
Cc1cc(C)c(S(=O)(=O)Nc2cccc(-c3cn4ccccc4n3)c2)c(C)c1 14.1 µM [inhibitor, partial curve, poor fit]
Cc1ccc(NC(=O)Cn2cc(S(=O)(=O)NC(C)C)c(S(=O)(=O)NC(C)C)c2)cc1Cl 7.94 µM [inhibitor, partial curve]
COc1ccc(NC(=O)/C(Cl)=C(/Cl)S(=O)Cc2ccc(Cl)cc2)cn1 (stereo not drawn) 2.82 µM [inhibitor, full curve, poor fit]
O=C(/C=C/c1ccco1)Nc1ccc(Cl)c(-c2nc3cc(Cl)ccc3o2)c1 6.31 µM [inhibitor, partial curve]
NCCCC[C@@H]1NC(=O)c2cc([N+](=O)[O-])cc(F)c2NCCCC[C@@H](C(N)=O)NC(=O)CNC1=O 1.26 µM [inhibitor, full curve, poor fit]
O=C(COc1ccccc1-c1ccccc1)N/N=C/c1cccc2ccccc12 17.8 µM [inhibitor, partial curve, poor fit]
C=COC(=O)CSc1nc(-c2cccs2)ccc1C#N 7.08 µM [inhibitor, partial curve, poor fit]
COc1ccc(OCC(=O)Nc2nc(-c3ccc(Br)cc3)ns2)cc1 35.5 µM [inhibitor, single point]
O=C(Nc1ccc(Cl)cc1)c1cc(S(=O)(=O)N2CCCc3ccccc32)ccc1F 7.08 µM [inhibitor, partial curve]
COc1ccc(NCc2cc3cc4c(cc3n(CC(=O)Nc3ccccc3)c2=O)OCO4)cc1 3.16 µM [activator, partial curve]
O=C(NC(=S)Nc1cccc(Cl)c1N1CCCCC1)c1cccs1 22.4 µM [inhibitor, single point]
COc1ccc(C(C(=O)NC(C)(C)C)N(Cc2cccs2)C(=O)CCC(=O)Nc2cc(C)on2)cc1 (stereo not drawn) 8.91 µM [inhibitor, single point]
COc1cccc(CNC(=O)Cn2nc3c(cc2=O)CCCC3)c1OC 17.8 µM [inhibitor, single point]
Cc1ccc(C2c3c(-c4ccccc4O)n[nH]c3C(=O)N2CCc2ccccc2)cc1 (stereo not drawn) 39.8 µM [inhibitor, single point]
Cn1c(=O)c(C(=O)COC(=O)c2cc(-c3ccccc3)nc3ccccc23)c(N)n(Cc2ccccc2)c1=O 39.8 µM [inhibitor, single point] and 25.1 µM [inhibitor, partial curve]
COc1ccc(OC)c(/C=C/C(=O)Nc2cccc(S(=O)(=O)N3CCCC3)c2)c1 31.6 µM [inhibitor, single point]
Cc1nc2c3ccccc3n(Cc3ccccc3F)c2s1 39.8 µM [inhibitor, single point]
COc1ccc(-c2csc(NC(=O)c3ccc(S(=O)(=O)N4CCc5ccccc5C4)cc3)n2)c(OC)c1 22.4 µM [inhibitor, single point]
COc1ccccc1OCCn1cc(/C=N/NC(N)=S)c2ccccc21 2.82 µM [activator, single point]
COc1ccc(NC(=O)Cn2c(=O)n(-c3ccc(CC(=O)NCc4ccco4)cc3)c(=O)c3ccccc32)cc1 28.2 µM [inhibitor, single point]
Cc1cc(C)c2[nH]c(C(=O)Nc3ccc4c(c3)OCO4)cc2c1 6.31 µM [activator, single point]
O=C(N/N=C/c1ccc(N2CCCCC2)o1)C(O)(c1ccccc1)c1ccccc1 20 µM [inhibitor, single point]
Cc1ccc(S(=O)(=O)N2CCN(C(=S)NCc3ccc4c(c3)OCO4)CC2)cc1 39.8 µM [inhibitor, single point]
CCOC(=O)C(NC(=O)Nc1ccc(O)cc1)(c1ccccc1)C(F)(F)F (stereo not drawn) 39.8 µM [inhibitor, single point]

Potency, inactive:
COC(=O)CCC(=O)OC1(C)C(=O)C=C2C=C(C3CC3)N(Cc3ccco3)C=C2C1=O (stereo not drawn)

activity, negative = inhibition, inactive:
CCc1ccc(NC(=O)c2oc3c(c2C)-c2[nH]ncc2CC3)cc1 13.3%
O=C(Nc1nnc(SCC(=O)N2CCOCC2)s1)c1ccccc1Cl 2.67%
O=[N+]([O-])c1c(NCc2ccccc2)cc(N2CCc3ccccc3C2)c2nonc12 -7.98%
Cc1c(NC(=S)N/C(=N/S(=O)(=O)c2ccccc2)c2ccccc2)c(=O)n(-c2ccccc2)n1C 10.6%
O=C(N/N=C/c1ccco1)c1ccncc1 -3.7%
CCN1CCN(C(=O)NC(c2ccc(C)c(F)c2)C(Cl)Cl)CC1 (stereo not drawn) 4.33%
